B1: VH4Vk3-ThioBridge®-(VCP-SN-38)2 (conjugate)
heavy: EVQLVESGGGLVQPGGSLKLSCAASGFTFSTFGIHWVRQAPGKGLEWVAYISGASTTIYYADTVKGRFTISRDNSKNTLYLQMNSLRAEDTAVYYCARYGTSFPYGLDYWGQGTLVTVSSASTKGPSVFPLAPSSKSTSGGTAALGCLVKDYFPEPVTVSWNSGALTSGVHTFPAVLQSSGLYSLSSVVTVPSSSLGTQTYICNVNHKPSNTKVDKRV[letters of human IgG1 Fc left out]
light: DIVMTQSPDSLAVSLGERATINCKASQSVDYDGDSYMNWYQQKPGKAPKLLIYGASNLESGIPDRFSGSGSGTDFTLTISRLEPEDAAVYYCQQSNEDPFTFGQGTKLEIKRTVAAPSVFIFPPSDEQLKSGTASVVCLLNNFYPREAKVQWKVDNALQSGNSQESVTEQDSKDSTYSLSSTLTLSKADYEKHKVYACEVTHQGLSSPVTKSFNRGEC
B2: VH5Vk3-ThioBridge®-(VCP-SN-38)2 (conjugate)
heavy: EVQLVESGGGLVQPGGSLKLSCAASGFTFSTFGIHWVRQAPGKGLEWVAYISGASTTIYYADSVKGRFTISRDNSKNTLYLQMNSLRAEDTAVYYCARYGTSFPYGLDYWGQGTLVTVSSASTKGPSVFPLAPSSKSTSGGTAALGCLVKDYFPEPVTVSWNSGALTSGVHTFPAVLQSSGLYSLSSVVTVPSSSLGTQTYICNVNHKPSNTKVDKRV[letters of human IgG1 Fc left out]
light: DIVMTQSPDSLAVSLGERATINCKASQSVDYDGDSYMNWYQQKPGKAPKLLIYGASNLESGIPDRFSGSGSGTDFTLTISRLEPEDAAVYYCQQSNEDPFTFGQGTKLEIKRTVAAPSVFIFPPSDEQLKSGTASVVCLLNNFYPREAKVQWKVDNALQSGNSQESVTEQDSKDSTYSLSSTLTLSKADYEKHKVYACEVTHQGLSSPVTKSFNRGEC

Columns and labels:
[1] = tested on: H522, H460, A549 and H1299 cells; assay: Incucyte cytotoxicity, cell confluence over time; assay type: cell-based, human
PDX TM00096 (BR085F) = assay: PDX model TM00096 of triple negative breast cancer; assay type: in vivo, mouse; conditions: for change in body weight before and after treatment: 10 mg/kg weekly, 5 doses (ADC1, ADC2) or 4 doses (ADC3, ADC4), here ADC2 = VH4Vk3-ThioBridge-VCP-MMAE; for weight of removed tumors compared to PBS: 4 weekly doses 10 mg/kg; for tumor volume response: 4 weekly doses 10 mg/kg tail vein, ADC3 = VH5Vk3-, ADC4 = VH4Vk3-ThioBridge-VCP-(SN-38)2
H522-derived xenograft = H522-derived xenograft model of human lung cancer; conditions: ADC 10 mg/kg i.v. weekly, 3 doses
A549-derived xenograft = A549-derived xenograft model of human lung cancer; conditions: for change in body weight, before first dose versus termination: ADC 10 mg/kg i.v.
H460-derived xenograft = H460-derived xenograft model of human lung cancer; conditions: ADC 10 mg/kg i.v. every 5 days, 3 doses

| Molecule | ADC-induced cell death (decrease of cell confluence) [1] | change in body weight before and after treatment (PDX TM00096 (BR085F)) | weight of removed tumors compared to PBS (PDX TM00096 (BR085F)) | tumor volume response (PDX TM00096 (BR085F)) | change in body weight, before first dose versus termination (H522-derived xenograft) | tumor response (H522-derived xenograft; VH5Vk3 ADC: first study, n=10) | change in body weight, before first dose versus termination (A549-derived xenograft) | change in body weight, before first dose versus termination (H460-derived xenograft) | number of tumors with full regression (H460-derived xenograft; n=9 (MMAE ADC), n=8 (SN-38 ADC)) | tumor response (A549-derived xenograft; ADC 10 mg/kg i.v. weekly, 3 doses) | day until which partial regressions were observed (A549-derived xenograft; ADC 10 mg/kg weekly, days 1-20, tumors then progressed until day 20) [days] | number of tumors with partial regression (H460-derived xenograft; n=9) |
| --- | --- | --- | --- | --- | --- | --- | --- | --- | --- | --- | --- | --- |
| B1 | increasing amounts of ADC induced cell death which is dependent on the levels of expression of the target EphA5 | no significant changes in body weight | no significant reduction in weight as compared to placebo | delayed tumor growth followed by rapid re-growth and early termination due to tumor burden | no significant changes in body weight | Full regression was observed for all ADC-treated tumors | no significant changes in body weight | no changes in body weight | 1 |  |  |  |
| B2 | increasing amounts of ADC induced cell death which is dependent on the levels of expression of the target EphA5 | no significant changes in body weight | slightly reduced in weight compared to the PBS control group | delayed tumor growth followed by rapid re-growth and early termination due to tumor burden |  |  | No significant differences in the body weights | no significant changes in body weight |  | Partial regressions | 14 | 7 |
